# Measured values reported in PubChem BioAssay AID485294 (National Center for Advancing Translational Sciences (NCATS), 2010).
# Hit rate of the full screen: of about 370,000 compounds, about 150 (0.041%) were called active. Inconclusive results, whose numbers are uncertain, are shown with a selection of clear calls. The call rests on the fitted dose curve; in most records, active means well fitted inhibition curve with a large enough effect; inconclusive means small, poorly fitted or top-dose-only effect; inactive means flat fitted curve, though single readings scatter. No potency is given beside an inconclusive call; the fits are too rough.
# Molecular target: Beta-lactamase (Escherichia coli (strain K12)) (UniProt P00811)
# Assay: qHTS Inhibitors of AmpC Beta-Lactamase (assay with detergent); further: nearly all actives have a fitted effect of over 25% in size;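 on activity change, negative = inhibition: 0% = no-compound wells and -100% = no-enzyme wells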
# Details: AmpC hydrolysis of nitrocefin, absorbance 480 nm, 0.01% Triton; activity change, negative = inhibition: at 114 µM (top of the series)
# Procedure, shortened: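 AmpC (5.3 nM in the dispensed reagent) in 20 mM phosphate pH 7.0 with 0.01% (detergent screen) or 0.0001% Triton X-100 was preincubated with compounds for 15 min at room temperature. Nitrocefin was then added from an 800 uM solution, and hydrolysis was followed at 480 nm.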
# Potency means the concentration at half of the fitted maximal effect; tags describe the fitted curve by direction and shape.
# Chain of UniProt P00811 (P00811 whole entry, looked up): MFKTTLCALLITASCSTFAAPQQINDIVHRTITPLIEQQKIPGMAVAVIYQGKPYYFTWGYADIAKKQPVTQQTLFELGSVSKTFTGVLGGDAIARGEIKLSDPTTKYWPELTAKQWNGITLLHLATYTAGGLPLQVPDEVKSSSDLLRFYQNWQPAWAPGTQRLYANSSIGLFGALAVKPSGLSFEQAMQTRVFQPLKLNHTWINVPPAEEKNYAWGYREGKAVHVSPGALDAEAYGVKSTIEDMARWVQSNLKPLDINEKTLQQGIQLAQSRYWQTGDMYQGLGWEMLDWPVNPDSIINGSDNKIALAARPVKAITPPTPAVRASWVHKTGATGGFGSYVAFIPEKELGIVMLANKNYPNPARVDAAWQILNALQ
SMILES,"activity change, negative = inhibition",Potency
CCOC(=O)C1(Cc2cccc(Cl)c2)CCCN(C(=O)c2cc(CC)on2)C1 (stereo not given),inactive: 4.42%,–
Cc1ccc(NC(=O)OCc2ccccc2S(C)=O)cc1 (stereo not given),–,"inconclusive [inhibitor, full curve, poor fit]"
O=C(/C=C/c1ccc(F)cc1)Nc1cc(S(=O)(=O)N2CCOCC2)ccc1N1CCCC1,–,"inconclusive [inhibitor, full curve, poor fit]"
CCOC(=O)c1ccc(NC(=O)CCCn2nc(C)c3sc4ccccc4c3c2=O)cc1,inactive: 1.15%,–
CCCCN(CC)CCCNC(=O)Cn1nc(CC)n2c(cc3sccc32)c1=O,inactive: 22.9%,–
C#CCOCCOCCOCCNc1nc(N2CCN(C(=O)[C@H]([C@@H](C)CC)n3cc(CCCCN)nn3)CC2)nc(N2CCN(C(=O)[C@H](CCCCN)n3cc(CCCC)nn3)CC2)n1,inactive: 0.817%,–
CCc1nc(SCC(=O)NCc2ccc(F)cc2)c2c(=O)n(C)c(=O)n(C)c2n1,–,"inconclusive [inhibitor, partial curve, poor fit]"
O=C1C(C=Nc2ccccc2)=C(O)c2ccccc21,inactive: -6.54%,–
COc1ccc(Nc2ncnc3c2cnn3-c2cc(Cl)ccc2C)cc1OC,inactive: 6.55%,–
Cc1ccc(C(=O)N2CCCC(Nc3ccc(F)c(F)c3)C2)cn1 (stereo not given),–,"inconclusive [inhibitor, full curve, poor fit]"
C=CCN(C(=O)Nc1ccc2c(c1)nc(C)n2C)c1ccccc1,–,"inconclusive [inhibitor, full curve, poor fit]"
O=S(=O)(c1ccc(Cl)cc1)N1CCCN(c2nc3ccc(Cl)cc3s2)CC1,inactive: -7.29%,–
O=C(Nc1ccccc1Cl)c1cnccn1,inactive: -7.1%,–
CC(=O)Nc1ccc(C(=O)Nc2ccc3c(c2)OCO3)cc1,inactive: -13.1%,–
CCN(c1ccccc1)S(=O)(=O)c1ccc(OC)c(NC(=O)CCc2nc3ccccc3c(=O)[nH]2)c1,–,"inconclusive [inhibitor, full curve, poor fit]"
Cc1c(/C=C2\NC(=O)NC2=O)c2ccccc2n1C,–,"inconclusive [inhibitor, partial curve, poor fit]"
CSc1ccc(C2c3[nH]c4ccccc4c3CCN2C(=O)c2cc(C)n(C)n2)cc1 (stereo not given),inactive: 1.88%,–
CCN1CCN(Cc2ccc(NC(=O)c3ccc(C)c(NC(=O)C(=O)c4c[nH]c5ccccc45)c3)cc2C(F)(F)F)CC1,–,"inconclusive [inhibitor, full curve, poor fit]"
Cc1ccccc1NC(=O)CSc1nnc2ccc(-c3cccnc3)nn12,–,"inconclusive [inhibitor, full curve, poor fit]"
O=c1[nH]c(/C=C/c2ccccn2)nc2ccccc12,inactive: 3%,–
COc1cc(-c2nc3c[n+](CC(=O)c4ccccc4)ccc3n2C)cc(OC)c1OC,inactive: -12.5%,–
CCOC(=O)c1c(-c2ccccc2)oc2ccc(O)c(CN(C)C)c12,–,"inconclusive [inhibitor, full curve]"
O=C(CCn1cccc1)Nc1cccc(F)c1,inactive: -3.41%,–
N#C/C(=C\c1ccncc1)c1ccccn1,inactive: -3.75%,–
Cn1c(NCc2cccs2)nc2ccccc21,inactive: 4.31%,–

SMILES,"activity change, negative = inhibition",Potency
CCOC(=O)c1oc2ccccc2c1CSc1nnc(-c2ccco2)o1,–,"inconclusive [inhibitor, partial curve, poor fit]"
O=C(NC1=NCCS1)c1ccccc1,–,"inconclusive [inhibitor, full curve, poor fit]"
COc1ccc(NC(=O)C2CCN(S(=O)(=O)c3cn(C)cn3)CC2)cc1Cl,inactive: 19.3%,–
O=c1c2ccccc2nnn1COc1cccc(Cl)c1,inactive: 1.94%,–
C/C(Cn1nnc([N+](=O)[O-])n1)=N\NC(=O)c1ccccc1,inactive: -12.6%,–
O=C(c1n[nH]c(=O)c2ccccc12)N1CCC2(CC1)OCCO2,–,"inconclusive [inhibitor, full curve, poor fit]"
O=C(NCc1ccccn1)c1cc(-c2ccccc2)on1,–,"inconclusive [inhibitor, single point]"
O=C(O)c1ccccc1NC(=S)NC(=O)c1cccc2ccccc12,–,"inconclusive [inhibitor, partial curve, poor fit]"
COc1cccc(Nc2nc3ccc(OC)cc3s2)c1,inactive: 4.31%,–
CCc1ccc(CN(Cc2ccco2)C(=O)COc2ccccc2Cl)cc1,inactive: -3.27%,–
O=C(CSc1nnc(-c2cccnc2)n1CCc1ccccc1)NCc1ccccc1,–,"inconclusive [inhibitor, single point]"
CCSc1nnc(NC(=O)c2csc3c2CCCC3)s1,–,"inconclusive [inhibitor, full curve, poor fit]"
Cc1nnc2ccc(-c3cccc(NS(=O)(=O)c4ccccc4[N+](=O)[O-])c3)nn12,inactive: -3.19%,–
CCN(CC)S(=O)(=O)c1cccc(-c2nnc(SCCOc3ccccc3)o2)c1,inactive: -12.8%,–
CCn1c(C)nc2cc(C(=O)N=Nc3c(O)[nH]c4ccccc34)ccc21,–,"inconclusive [inhibitor, full curve]"
Cc1ccccc1NC(=O)Cc1nnc(SCC(=O)NC2CCCCC2)n1C,inactive: -9.27%,–
O=C(/C=C/c1ccco1)N1CCN(c2ccccc2)CC1,–,"inconclusive [inhibitor, single point]"
CCCCN1C(=O)CN(C2CCCCCC2)C(=O)C1c1ccc(OCC)c(OC)c1 (stereo not given),inactive: 5.25%,–
CCOc1cc(/C=C/c2ccc3cccc([N+](=O)[O-])c3n2)ccc1O,inactive: -6.54%,–
CCCCN(CC)CCNC(=O)c1cc2c(C)nc3ccccc3c2o1,inactive: -0.29%,–
CC1(O)CC(=O)N(c2ccccc2)O1 (stereo not given),–,"inconclusive [inhibitor, full curve, poor fit]"
CCCCNC(=O)c1onc(CSc2ccccc2CC)c1C(=O)O,–,"inconclusive [inhibitor, full curve, poor fit]"
CCCC1=NN(c2ccc([N+](=O)[O-])cc2)C(=O)/C1=C/N(C)C,inactive: 0.0881%,–
COc1ccccc1NC1=C(Cl)C(=O)N(c2ccccc2)C1=O,inactive: -5.25%,–
C=CCNC(=O)C1CC(=O)N(c2ccc(C)cc2)C1 (stereo not given),–,"inconclusive [inhibitor, full curve]"

SMILES,"activity change, negative = inhibition",Potency
N#CC1=C(N)SC(N)=C(C#N)C1c1ccc([N+](=O)[O-])cc1,–,"inconclusive [inhibitor, full curve]"
COc1ccccc1N1CCN(C(=O)CSc2nc(-c3ccccc3)cc(=O)[nH]2)CC1,–,"inconclusive [inhibitor, single point]"
CCCCc1cc(=O)oc2cc(C)cc(OCC(=O)N3CCC(C(N)=O)CC3)c12,–,"inconclusive [inhibitor, full curve]"
Cc1[nH]c2ccccc2c1C(=O)COC(=O)c1c(-c2ccccc2)noc1C,–,"inconclusive [inhibitor, full curve, poor fit]"
O=C(NCCCN=C1NS(=O)(=O)c2ccccc21)c1ccc(F)cc1,–,"inconclusive [inhibitor, full curve]"
COc1ccc(C(=O)NN2CCCCC2)cc1OC,–,"inconclusive [inhibitor, full curve]"
O=C(NCCCN1CCCCC1)C1CCC(=O)N1CCc1ccccc1 (stereo not given),inactive: 0.82%,–
COc1cc(C(=O)NNC(=O)COc2ccc(C)cc2)ccc1OCC(=O)N1CCOCC1,–,"inconclusive [inhibitor, full curve, poor fit]"
N[C@@H](Cc1c[nH]c2ccc(O)cc12)C(=O)O,–,"inconclusive [inhibitor, full curve]"
CCOc1cccc(OCCCNCCCOC)c1,–,"inconclusive [inhibitor, partial curve, poor fit]"
Nc1cn(C2OC(CO)C(O)C2O)c(=O)[nH]c1=O (stereo not given),inactive: -11.6%,–
Cc1ccc(CNC(=O)c2ccc3c(c2)CCN3S(=O)(=O)c2ccccc2)cc1,inactive: 4.11%,–
O=C(COC(=O)c1ccc(O)cc1O)c1ccc2c(c1)OCO2,–,"inconclusive [inhibitor, partial curve, poor fit]"
CC(C)OC(=O)c1nn2c(C(F)(F)F)cc(-c3ccco3)nc2c1Cl,inactive: -1.87%,–
CCCCc1cc(=O)oc2cc(C)cc(OC(C)C(=O)NCC3CCC(C(=O)O)CC3)c12 (stereo not given),–,"inconclusive [inhibitor, full curve, poor fit]"
Cc1ccc(OCCSc2nnc(-c3ccncc3)n2C)cc1,–,"inconclusive [inhibitor, partial curve, poor fit]"
COc1ccc(/C(C#N)=C/c2ccccn2)cc1,inactive: -4.54%,–
CCC(=O)N1CCC(c2ccc(OC)cc2)=N1,–,"inconclusive [inhibitor, partial curve]"
O=C(NCc1ccccc1)c1ccc(CSc2ccccc2)o1,inactive: -12.4%,–
O=C(Nc1ccc(Cl)c(C(=O)N2CCOCC2)c1)c1ccccc1,–,"inconclusive [inhibitor, full curve, poor fit]"
COc1ccc(OC)c2sc(NC(=O)c3ccc(S(=O)(=O)N4CCOCC4)cc3)nc12,–,"inconclusive [inhibitor, full curve, poor fit]"
COCCC(=O)N1CCC(Oc2ccc(C(=O)NC3CCCCC3)cc2)CC1,–,"inconclusive [inhibitor, full curve]"
CCOC(=O)c1ccc(N/C=C/C(=O)c2ccccc2)cc1,inactive: -0.87%,–
O=C(Oc1ccc2c(=O)c(Cl)coc2c1)c1ccncc1,–,"inconclusive [inhibitor, single point]"
Cc1cccc(C)c1NC(=O)CNC(=O)C1CC(=O)N(Cc2ccccc2)C1 (stereo not given),inactive: -13.3%,–
